Assay results as given in PubChem BioAssay AID588855 (National Center for Advancing Translational Sciences (NCATS), 2011).
“And” between values parts separate entries of the source, which are not always exact repeats. Equal values may be shown once. In all, about 410,000 compounds went through this assay and about 5,000 (1.2%) were called active. The shares of active, inactive and inconclusive entries below differ from those in the screen. The call rests on the fitted dose curve; in most records, active means well fitted inhibition curve with a large enough effect; inconclusive means small, poorly fitted or top-dose-only effect; inactive means no such curve, though single readings can be large or run the other way. A potency beside an inconclusive call is a rough fit, not a confirmed value.

Test: qHTS for Inhibitors of TGF-b; further: nearly all actives have a fitted effect of over 65% in size
Settings: HepG2 CAGA-GFP TGF-b/SMAD3 reporter, GFP fluorescence, 18 h, TGF-beta stimulated, 500 pg/mL final; series mostly up to 46.1 µM
How it was run: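 GFP signal (ex488/em500-530) from TGF-beta-stimulated HEPG2 CAGA-GFP cells, 500 pg/mL final, 18 h at 37 degrees C in DMEM plus 1% FBS, normalized to unstimulated and DMSO-stimulated controls.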
Potency means the concentration at half of the fitted maximal effect; tags describe the fitted curve by direction and shape.

**Q.** With `Cc1ccccc1OCc1nc2ccccc2c(=O)n1/N=C/c1c[nH]c2ccccc12` as the compound, how does the Potency read?
**A.** inconclusive: 25.1 µM [inhibitor, single point]

**Q.** For `Cc1sc2ncnc(N/N=C/c3cccc(O)c3)c2c1C`, which Potency is on record?
**A.** inconclusive: 35.5 µM [inhibitor, single point]

**Q.** For `Cc1cc(=O)n(C)c(=O)n1CCCCCN1CCCC1`, which Potency is on record?
**A.** inconclusive: 25.1 µM [inhibitor, single point]

**Q.** For `COc1ccc(CNC(=O)COc2ccc(C(=O)c3ccc(F)cc3)cc2)cc1`, which Potency is on record?
**A.** inconclusive: 20 µM [inhibitor, single point]

**Q.** With `O=C(Nc1ccccc1Cl)c1c(F)c(F)c(F)c(F)c1F` as the compound, how does the Potency read?
**A.** inactive

**Q.** Which Potency does the source give for `O=C(NCCCSc1ccccc1)c1cc(Br)ccc1O` here?
**A.** inconclusive: 15.8 µM [inhibitor, single point]

**Q.** Which Potency does the source give for `Cn1c(SCC(N)=O)nc2c([nH]c3ccccc32)c1=O` here?
**A.** inconclusive: 11.2 µM [inhibitor, partial curve, poor fit]

**Q.** Which Potency does the source give for `O=C(O)c1ccc(Nc2nc(-c3ccccc3)c3cc(Br)ccc3n2)cc1` here?
**A.** inactive

**Q.** With `Cc1cc(-c2ccc([N+](=O)[O-])cc2)cc(C)n1` as the compound, how does the Potency read?
**A.** inactive

**Q.** For `COCCn1c(-c2ccc(Cl)cc2Cl)nc2c(c(=O)c3ccccc3n2C)c1=O`, which Potency is on record?
**A.** inconclusive: 35.5 µM [inhibitor, single point]

**Q.** Which Potency does the source give for `CC(C)c1ccc(NC(=O)C(c2ccccc2)N(Cc2ccco2)C(=O)CC2NC(=O)NC2=O)cc1` (stereo unspecified) here?
**A.** inconclusive: 25.1 µM [inhibitor, single point]

**Q.** Which Potency does the source give for `CCN(C(=O)c1cnc(N2CCN(c3ncccn3)CC2)c2ccccc12)c1cccc(Cl)c1` here?
**A.** inconclusive: 35.5 µM [inhibitor, single point]

**Q.** For `CCOC(=O)C1CCN(C2=C(NS(=O)(=O)c3ccc(Br)cc3)C(=O)c3ccccc3C2=O)CC1`, which Potency is on record?
**A.** active: 17.8 µM

**Q.** Which Potency does the source give for `CCc1ccc(CN(C)C(=O)c2cc(COc3cc(C)c(Cl)c(C)c3)on2)nc1` here?
**A.** inconclusive: 35.5 µM [inhibitor, single point]

**Q.** With `CC(C)c1ccc2nc(NC(=O)C3CC3)sc2c1` as the compound, how does the Potency read?
**A.** inconclusive: 11.2 µM [inhibitor, partial curve, poor fit]

**Q.** Which Potency does the source give for `CCOC(=O)c1cc(-c2ccccc2)n(CCC(=O)Nc2ccc(C(F)(F)F)cc2)c1C` here?
**A.** inconclusive: 5.62 µM [inhibitor, single point]

**Q.** With `CC(C)OC(=O)c1cc(NC(=S)Nc2ccc([N+](=O)[O-])cc2)cc(C(=O)OC(C)C)c1` as the compound, how does the Potency read?
**A.** inactive

**Q.** With `COCCN(Cc1ccccc1)C(=O)c1cc(S(=O)(=O)N2CCCCCC2)ccc1OC` as the compound, how does the Potency read?
**A.** inactive

**Q.** With `O=C(NCCn1cc(SCc2cccc(F)c2)c2ccccc21)c1cccc(C(F)(F)F)c1` as the compound, how does the Potency read?
**A.** inconclusive: 4.47 µM [inhibitor, single point]

**Q.** For `[O-]/[N+](=C\c1ccc(F)cc1)c1ccccc1`, which Potency is on record?
**A.** inconclusive: 3.16 µM [inhibitor, single point]

**Q.** With `N#CCSc1nc2c(c(=O)n1Cc1ccccc1)C1(CCCC1)Cc1ccccc1-2` as the compound, how does the Potency read?
**A.** inconclusive: 35.5 µM [inhibitor, single point]

**Q.** For `CN(c1ncnc2c1c(-c1ccccc1)cn2-c1ccc(F)cc1)C1CCCCC1`, which Potency is on record?
**A.** inconclusive: 25.1 µM [inhibitor, single point]

**Q.** With `COc1cccc(-c2csc(N3CCN(C(=S)Nc4cccc(C)c4)CC3)n2)c1` as the compound, how does the Potency read?
**A.** inactive

**Q.** With `Cc1cc(C)c(-c2csc(NC(=O)C3=COCCO3)n2)c(C)c1` as the compound, how does the Potency read?
**A.** inconclusive: 12.6 µM [inhibitor, single point]

**Q.** For `Cc1cccc(NC(=O)CSc2nc3ccc(NC(=O)COc4ccc(Cl)cc4)cc3s2)c1`, which Potency is on record?
**A.** inconclusive: 2.51 µM [inhibitor, partial curve]

**Q.** Which Potency does the source give for `Cc1c(NC(=O)Cc2ccc(F)cc2)cccc1-c1nc2cccnc2s1` here?
**A.** inactive

**Q.** Which Potency does the source give for `O=C(NCc1ccc(F)cc1)C1CCCN(S(=O)(=O)c2ccc(-n3cnnn3)cc2)C1` (stereo unspecified) here?
**A.** inconclusive: 35.5 µM [inhibitor, single point]

**Q.** With `COC(=O)c1ccccc1NC(=O)Nc1ccc(C(=O)N2CCCC2)cc1` as the compound, how does the Potency read?
**A.** inconclusive: 0.112 µM [inhibitor, full curve, poor fit]

**Q.** For `CCn1c(SCC(=O)N2CCCc3ccccc32)nnc1-c1ccoc1C`, which Potency is on record?
**A.** inactive

**Q.** Which Potency does the source give for `C=CCNC(=S)N/N=C/c1ccc(C)s1` here?
**A.** inconclusive: 3.55 µM [inhibitor, full curve]

**Q.** Which Potency does the source give for `C[C@@H]1[C@H](c2ccccc2)OCCS(=O)(=O)N1Cc1ccccc1Br` here?
**A.** inconclusive: 35.5 µM [inhibitor, single point]

**Q.** For `CCOC(=O)C1CCCN(Cc2ccccc2OCC)C1` (stereo unspecified), which Potency is on record?
**A.** inactive

**Q.** For `CCOC(=O)C1C(C(C)=O)=C(c2ccccc2)c2ccccc2N1S(=O)(=O)C(F)(F)F` (stereo unspecified), which Potency is on record?
**A.** inconclusive: 35.5 µM [inhibitor, single point]

**Q.** For `CN(Cc1ccc(Cl)c(Cl)c1)C(=O)c1[nH]c(C(F)(F)F)nc1-c1ccccc1`, which Potency is on record?
**A.** inconclusive: 25.1 µM [inhibitor, single point]

**Q.** With `COc1cc(/C=N/Nc2nc(C)nc3c2cnn3-c2ccccc2)ccc1O` as the compound, how does the Potency read?
**A.** inactive

**Q.** For `Cc1c(Br)c([N+](=O)[O-])nn1C(C)C(=O)Nc1ccc2c(c1)OCO2` (stereo unspecified), which Potency is on record?
**A.** inconclusive: 3.16 µM [inhibitor, single point]

**Q.** For `Cc1ccccc1NC(=O)Cn1c(=O)n(CCCCCC(=O)NCc2ccccc2Cl)c(=O)c2sccc21`, which Potency is on record?
**A.** inconclusive: 8.91 µM [inhibitor, partial curve]

**Q.** Which Potency does the source give for `CC(=O)Nc1ccc(S[C@@H](CCN2CC[C@H](C(C)(C)C)CCC2=O)c2ccccc2)cc1` here?
**A.** inconclusive: 15.8 µM [inhibitor, single point] and inconclusive: 2.24 µM [inhibitor, partial curve, poor fit]

**Q.** Which Potency does the source give for `Clc1ccc(C[n+]2cc(-c3ccccc3)n3c2CCCCC3)c(Cl)c1` here?
**A.** inconclusive: 12.6 µM [inhibitor, partial curve]

**Q.** Which Potency does the source give for `COc1cc(C2CC(=O)c3c([nH]c(C(=O)OCc4ccc(C)cc4)c3C)C2)cc(OC)c1OC` (stereo unspecified) here?
**A.** inconclusive: 8.91 µM [inhibitor, partial curve]

**Q.** With `Cc1cccc(C(c2sc3nc(-c4ccco4)nn3c2O)N2CCN(Cc3ccccc3)CC2)c1` (stereo unspecified) as the compound, how does the Potency read?
**A.** inconclusive: 11.2 µM [inhibitor, partial curve]
